Test results taken from the supplement of paper PMC10126150.
Values marked as one replicate rest on one cluster of the flow cell; about a third of the high ones do not repeat.

Test system: ATP
Experiment: switch fluorescence ratio, 500 uM ATP over buffer (Cy3 cluster intensity, sum of 5 cycles each) (fold (ratio)); higher = stronger signal-on switching upon ATP binding; sequences stand for … in TCGTCGGCAGCGTCAGATGTGTATAAGAGACAGTTTTTTTTTTTTTTTTTTTTTTTTT…TC
Conditions: aptamer strand: ATP DNA aptamer (quencher-CACCTGGGGGAGTATTGCGGAGGAAGG + anchor), 100 nM annealed; ATP concentration: 500 uM; one replicate
How it was run: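 Values give the fluorescence ratio for each switch-domain sequence, averaged from per-cluster ratios of summed target-cycle to summed buffer-cycle Cy3 intensity. The Cy3-labelled switching-strand clusters sat on a modified Illumina MiSeq flow-cell, were annealed to 100 nM quencher-labelled ATP aptamer, and were imaged in selection buffer, then after 15 min with 500 uM ATP at 22 °C. Five cycles ran with NaOH stripping and re-annealing between them, and clusters outside 100-1000 RFU were excluded.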
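Also: ATP exposure 15 min at 22 °C before imaging.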

TAAGAGCAGA
switch fluorescence ratio: 1.06

GTTAGTCTCG
switch fluorescence ratio: 1.06

AGCACGCTGA
switch fluorescence ratio: 1.01

GTAGCGGTCG
switch fluorescence ratio: 1.02

AGACTTTTAA
switch fluorescence ratio: 1.01

AAGGACGCGA
switch fluorescence ratio: 1.32

CGGAAAAACC
switch fluorescence ratio: 0.983

AGATGTTCTG
switch fluorescence ratio: 0.978

TCTGAGTATG
switch fluorescence ratio: 0.989

TCTTGGAAGC
switch fluorescence ratio: 0.982

TGAGATATG
switch fluorescence ratio: 0.997

CGTTAATTGG
switch fluorescence ratio: 0.992

GTAATTCGAA
switch fluorescence ratio: 1.01

GGGGTACAAG
switch fluorescence ratio: 0.981

TTATAGGGGC
switch fluorescence ratio: 0.961

GATACGAAT
switch fluorescence ratio: 0.984

TTAGGTTAAC
switch fluorescence ratio: 1.01

TCGCACGAAC
switch fluorescence ratio: 1.59

ATGATAGCGC
switch fluorescence ratio: 1.01

GATCAAGAAC
switch fluorescence ratio: 1.02

GATTTATCGA
switch fluorescence ratio: 1.01

ACTACATGCT
switch fluorescence ratio: 1.03

TTATCATTCT
switch fluorescence ratio: 1.02

ATTCCCGTCG
switch fluorescence ratio: 1

AAGTCGGTAC
switch fluorescence ratio: 1.25

GTGGCTCATA
switch fluorescence ratio: 0.998

CCGGTGTTGG
switch fluorescence ratio: 1.04

ATGATACCGT
switch fluorescence ratio: 0.969

GCTCGGGACA
switch fluorescence ratio: 1.02

CATGTTGGGC
switch fluorescence ratio: 0.981

GATTATCGGG
switch fluorescence ratio: 0.974

CGCAGTGTAT
switch fluorescence ratio: 1.08

TGTAAGGATA
switch fluorescence ratio: 1.01

GGGTACCGCT
switch fluorescence ratio: 0.958

GACGCGGGTT
switch fluorescence ratio: 1.03

AGTAATATTA
switch fluorescence ratio: 0.983

AGGCATCGAA
switch fluorescence ratio: 1.02

ATAGAGTTCC
switch fluorescence ratio: 0.974

TCGTCAAAT
switch fluorescence ratio: 0.996

TTCATAAGTA
switch fluorescence ratio: 0.957

CTACACGCCG
switch fluorescence ratio: 1.18

TCGTAGCCCA
switch fluorescence ratio: 1.08

GCTCACACAC
switch fluorescence ratio: 1.58

GTGAACAAAC
switch fluorescence ratio: 0.971

AAATAGGGG
switch fluorescence ratio: 0.985

GACATTGGTC
switch fluorescence ratio: 0.978

GCCTTTGGGG
switch fluorescence ratio: 1.03

CCCAACGACA
switch fluorescence ratio: 1.21

TCATCGTTTG
switch fluorescence ratio: 1.01

CCCTTAGCCA
switch fluorescence ratio: 0.997

CGTGAATCGT
switch fluorescence ratio: 0.947

TTTGCGGAGA
switch fluorescence ratio: 1.04

TTGCAAACG
switch fluorescence ratio: 1.34

ACCGTTCCTT
switch fluorescence ratio: 1.04

GTTGTGATGC
switch fluorescence ratio: 1.12

ATGAAACGGG
switch fluorescence ratio: 1.05

AACAGACCGT
switch fluorescence ratio: 1.04

GATGATGGAT
switch fluorescence ratio: 1

ATAGCATTCG
switch fluorescence ratio: 1.04

CGTTGTGCTT
switch fluorescence ratio: 0.983

TAGGGGTGA
switch fluorescence ratio: 1.02

AAACTGGGCC
switch fluorescence ratio: 0.984

AGACCGCATA
switch fluorescence ratio: 5.41

GTTGTGTAAT
switch fluorescence ratio: 0.988

CCAGCACGGA
switch fluorescence ratio: 1.05

CACTACTACG
switch fluorescence ratio: 1.12

AAAACTAATT
switch fluorescence ratio: 1.04

ACCCAGAATT
switch fluorescence ratio: 0.976

CGTGCCTCGT
switch fluorescence ratio: 0.997

CTCACCAAA
switch fluorescence ratio: 1.02

CGTAACCAGG
switch fluorescence ratio: 1.9

GATTCTGGAG
switch fluorescence ratio: 1.08

TGTCTCTACA
switch fluorescence ratio: 1.01

AGAGTTGTAG
switch fluorescence ratio: 1.03

ATAGTCTCCG
switch fluorescence ratio: 1.03

TATTTACTT
switch fluorescence ratio: 0.999

AGAACAAGCT
switch fluorescence ratio: 1.01

CGGAGGCTT
switch fluorescence ratio: 1.1

AAAGTCGACG
switch fluorescence ratio: 1.04

AGGGGCTGCA
switch fluorescence ratio: 1.2

CCCGTACAGT
switch fluorescence ratio: 1.04

CAGGATAGGG
switch fluorescence ratio: 0.98

ATCTTCGTTC
switch fluorescence ratio: 1.02

CTCTGGCGCG
switch fluorescence ratio: 1.02

TATTGCGCC
switch fluorescence ratio: 1.01
